From the supplement of paper PMC12217912
Some of the results follow. The full chains were built here from the parent and the listed change. Values near 0.05 are background.

B1: TEV protease; numbered along this chain (parent)
chain: MGESLFKGPRDYNPISSSICHLTNESDGHTTSLYGIGFGPFIITNKHLFRRNNGTLVVQSLHGVFKVKDTTTLQQHLVDGRDMIIIRMPKDFPPFPQKLKFREPQREERICLVTTNFQTKSMSSMVSDTSCTFPSGDGIFWKHWIQTKDGQCGSPLVSTRDGFIVGIHSASNFTNTNNYFTSVPKNFMELLTNQEAQQWVSGWRLNADSVLWGGHKVFMVKPEEPFQPVKEATQL

Variants of: B1
Test: raw area under fraction-flipped curve 0-4 h after induction (AUC4h, not background-subtracted), DNA-recorder readout of cleavage of the substrate (dimensionless); higher = more cleavage of the substrate by the protease variant
Settings: temperature: 34 °C; time window: 0-4 h after rhamnose induction
Protocol: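 In vivo DNA recorder in E. coli TOP10(DE3) ΔrhaA at 34 °C. Each TEVp single-site mutant (parent TEVp 0) is paired with a single-site variant of the 7-mer TEVs (canonical ENLYFQ|S). The substrate sits between flexible linkers in a Bxb1-sfGFP-TEVs-SsrA fusion, so cleavage stabilises Bxb1 and speeds flipping of a recombination array, read by NGS. The value is the raw area under the fraction-flipped curve over 0-4 h after rhamnose induction (AUC4h), with ≥20 reads per time point. It is not background-subtracted; inactive controls average about 0.047.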
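Note: Bxb1 expression induced with 0.2% (w/v) L-rhamnose at OD600 near 0.5, cultures sampled hourly, flipped fraction per protease–substrate barcode pair counted by paired-end Illumina sequencing.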

MGESLFKGPRDYNPISSSICHLTNESDGHTTSLYGIGFGPFIITNKHLFRRNNGTLVVQSLHGVFKVKDTTTLQQHLVDGRDMIIIRMPKDFPPFPQKLKFREPQREERICLVTTNFQTKSMSSMVSDTSCTFPSGDGIFWKHNIQTKDGQCGSPLVSTRDGFIVGIHSASNFTNTNNYFTSVPKNFMELLTNQEAQQWVSGWRLNADSVLWGGHKVFMVKPEEPFQPVKEATQL [W144N]
area with substrate ENLDFQS: 0.0694
area with substrate ENLEFQS: 0.0735
area with substrate ENLFFQS: 0.0714
area with substrate ENLGFQS: 0.0663
area with substrate ENLHFQS: 0.0638
area with substrate ENLIFQS: 0.0663
area with substrate ENLKFQS: 0.0688
area with substrate ENLLFQS: 0.0602
area with substrate ENLMFQS: 0.0666
area with substrate ENLNFQS: 0.0776
area with substrate ENLPFQS: 0.0645
area with substrate ENLRFQS: 0.0737
area with substrate ENLSFQS: 0.0492

MGESLFKGPRDYNPISSSICHLTNESDGHTTSLYGIGFGPFIITNKHLFRRNNGTLVVQSLHGVFKVKDTTTLQQHLVDGRDMIIIRMPKDFPPFLQKLKFREPQREERICLVTTNFQTKSMSSMVSDTSCTFPSGDGIFWKHWIQTKDGQCGSPLVSTRDGFIVGIHSASNFTNTNNYFTSVPKNFMELLTNQEAQQWVSGWRLNADSVLWGGHKVFMVKPEEPFQPVKEATQL [P96L]
area with substrate ENLDFQS: 0.0617
area with substrate ENLEFQS: 0.0653
area with substrate ENLFFQS: 0.0913
area with substrate ENLGFQS: 0.0467
area with substrate ENLIFQS: 0.0893
area with substrate ENLKFQS: 0.068
area with substrate ENLNFQS: 0.065
area with substrate ENLPFQS: 0.0491
area with substrate ENLSFQS: 0.0616
area with substrate ENLWFQS: 0.073

MGESLFKGPRDYNPISSSICHLTNESDGHTTSLYGIGFGPFIITNKHLFRRNNGTLVVQSLHGVFKVKDTTTLQQHLVDGRDMIIIRMPKDFPPFPQKLKFREPQREERICLVTTNFQTKSMSSMVSDTSCTFPSGDGIFWKHWIQTKDGQCGSPLVSTRDGFIVGIHSASNFTNTNNYFTSVPKNFMELLVNQEAQQWVSGWRLNADSVLWGGHKVFMVKPEEPFQPVKEATQL [T192V]
area with substrate ENLDFQS: 0.0525
area with substrate ENLEFQS: 0.0441
area with substrate ENLFFQS: 0.0831
area with substrate ENLIFQS: 0.0869
area with substrate ENLKFQS: 0.0826
area with substrate ENLMFQS: 0.0938
area with substrate ENLNFQS: 0.0576
area with substrate ENLQFQS: 0.0774
area with substrate ENLRFQS: 0.0665
area with substrate ENLVFQS: 0.117

MGESLFKGPRDYNPISSSICHLTNESDGHTTSLYGIGFGPFIITNKHLFRRNNGTLVVQSLHGVFKVKDTTTLQQHLVDGRDMIIIRMPKDFPPFPQKLKFREPQREERICLVTTNFQTKSMSSMVSATSCTFPSGDGIFWKHWIQTKDGQCGSPLVSTRDGFIVGIHSASNFTNTNNYFTSVPKNFMELLTNQEAQQWVSGWRLNADSVLWGGHKVFMVKPEEPFQPVKEATQL [D128A]
area with substrate ENLDFQS: 0.0706
area with substrate ENLEFQS: 0.159
area with substrate ENLFFQS: 0.0986
area with substrate ENLGFQS: 0.0781
area with substrate ENLIFQS: 0.0981
area with substrate ENLKFQS: 0.106
area with substrate ENLLFQS: 0.0887
area with substrate ENLMFQS: 0.0821
area with substrate ENLNFQS: 0.0578
area with substrate ENLPFQS: 0.0536
area with substrate ENLRFQS: 0.0779
area with substrate ENLTFQS: 0.0606
area with substrate ENLWFQS: 0.0925

MGESLFKGPRDYNPISSSICHLTNESDGHTTSLYGIGFGPFIITNKHLFRRNNGTLVVQSLHGVFKVKDTTTLQQHLVDGRDMIIIRMPKDFPPFPQKLKFREPQREERICLVTTNFQTKSMSSMVSDTSCTFPSGDGIFWKHWIQTKDGQCGSPLVSTRDGFIVGIHSASNFTNTNNYFTSVPKNFMELLTNQEAQQWVSGWRLNANSVLWGGHKVFMVKPEEPFQPVKEATQL [D208N]
area with substrate ENLDFQS: 0.0725
area with substrate ENLEFQS: 0.0608
area with substrate ENLFFQS: 0.0641
area with substrate ENLHFQS: 0.0539
area with substrate ENLKFQS: 0.0837
area with substrate ENLLFQS: 0.0868
area with substrate ENLNFQS: 0.065
area with substrate ENLPFQS: 0.0608
area with substrate ENLQFQS: 0.0673
area with substrate ENLRFQS: 0.059

MGESLFKGPRDYNPISSSICHLTNESDGHTTSLYGIGFGPFIIFNKHLFRRNNGTLVVQSLHGVFKVKDTTTLQQHLVDGRDMIIIRMPKDFPPFPQKLKFREPQREERICLVTTNFQTKSMSSMVSDTSCTFPSGDGIFWKHWIQTKDGQCGSPLVSTRDGFIVGIHSASNFTNTNNYFTSVPKNFMELLTNQEAQQWVSGWRLNADSVLWGGHKVFMVKPEEPFQPVKEATQL [T44F]
area with substrate ENLDFQS: 0.0508
area with substrate ENLEFQS: 0.0403
area with substrate ENLFFQS: 0.0619
area with substrate ENLGFQS: 0.048
area with substrate ENLHFQS: 0.0585
area with substrate ENLKFQS: 0.0828
area with substrate ENLLFQS: 0.0582
area with substrate ENLNFQS: 0.0423
area with substrate ENLPFQS: 0.0481
area with substrate ENLQFQS: 0.053
area with substrate ENLRFQS: 0.0238
area with substrate ENLSFQS: 0.0613
area with substrate ENLVFQS: 0.0583
area with substrate ENLWFQS: 0.0531

MGESLFKAPRDYNPISSSICHLTNESDGHTTSLYGIGFGPFIITNKHLFRRNNGTLVVQSLHGVFKVKDTTTLQQHLVDGRDMIIIRMPKDFPPFPQKLKFREPQREERICLVTTNFQTKSMSSMVSDTSCTFPSGDGIFWKHWIQTKDGQCGSPLVSTRDGFIVGIHSASNFTNTNNYFTSVPKNFMELLTNQEAQQWVSGWRLNADSVLWGGHKVFMVKPEEPFQPVKEATQL [G8A]
area with substrate ENLDFQS: 0.0446
area with substrate ENLEFQS: 0.0593
area with substrate ENLFFQS: 0.0821
area with substrate ENLKFQS: 0.0915

MGESLFKGPRDYNPISSSICHLTNESDGHTTSLYGIGFGPFIITNKHLFRRNNGTLVVQSLHGVFKVKDTTTLQQHLVDGRDMIIIRMPKDFPPFPQKLKFREPQREERICLVTTNFQTKSMSSMVSDTSCTFPSGDGIFWKHWIQTKDGQCGSPLVSTRDGFIVGIHSASNFTNTNNYFTSVPKNFMELLTNQEAQQWVSGWRLNAQSVLWGGHKVFMVKPEEPFQPVKEATQL [D208Q]
area with substrate ENLDFQS: 0.0582
area with substrate ENLEFQS: 0.0633
area with substrate ENLFFQS: 0.0739
area with substrate ENLGFQS: 0.0707
area with substrate ENLHFQS: 0.0406
area with substrate ENLKFQS: 0.0303
area with substrate ENLNFQS: 0.0628
area with substrate ENLPFQS: 0.069
area with substrate ENLQFQS: 0.0575
area with substrate ENLSFQS: 0.0349
area with substrate ENLWFQS: 0.0555

MGESLFKGPRDYNPISSSICHLTNESDGHTTSLYGIGFGPFIITNKHLFRRNNGTLVVQSLHGVFKVKDTTTLQQHLVDGRDMIIIRMPKDFPPFPQKLKFREPQREERICLVTTNFQTKSMSSMVSDTSCTFPSGDGIFWKHWIQTKDGQCGSPLVSTRDGFIVGIHSASNFTNTNNYFTSVPKNFMELLTNQEAQQWISGWRLNADSVLWGGHKVFMVKPEEPFQPVKEATQL [V200I]
area with substrate ENLDFQS: 0.0654
area with substrate ENLEFQS: 0.0629
area with substrate ENLKFQS: 0.0708
area with substrate ENLPFQS: 0.0475
area with substrate ENLSFQS: 0.0868

MGESLFKGPRDYNPISSSICHLTNESDGHTTSLYGIGFGPFIITNKHLFRRNNGTLVVQSLHGQFKVKDTTTLQQHLVDGRDMIIIRMPKDFPPFPQKLKFREPQREERICLVTTNFQTKSMSSMVSDTSCTFPSGDGIFWKHWIQTKDGQCGSPLVSTRDGFIVGIHSASNFTNTNNYFTSVPKNFMELLTNQEAQQWVSGWRLNADSVLWGGHKVFMVKPEEPFQPVKEATQL [V64Q]
area with substrate ENLDFQS: 0.0717
area with substrate ENLGFQS: 0.0698
area with substrate ENLHFQS: 0.0756
area with substrate ENLLFQS: 0.0803
area with substrate ENLNFQS: 0.0688
area with substrate ENLPFQS: 0.067
area with substrate ENLRFQS: 0.0636
area with substrate ENLWFQS: 0.0735
